± gives the standard deviation of the averaged measurements. This is one part of the list.
tested on: PfAP2-LT AP2 domain (GST-tagged); test: gcPBM binding intensity (ln(normalized median fluorescence intensity)); higher = stronger DNA binding
Summary of the method: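 After 1 h on an Agilent 4 × 180k array of primer-extended double-stranded 36-bp intergenic genomic probes and negative controls, bound GST-tagged P. falciparum DNA-binding domains were detected with Alexa488 anti-GST antibody and scanned at 488 nm. The domains had been expressed in E. coli, and binding took place in 1× PBS with 1% milk, 0.2 mg/ml BSA, 0.5% salmon testes DNA and 0.03% Triton X-100. Binding intensity is the highest Masliner-normalised natural-log median intensity across replicate spots of either probe orientation.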

| Sequence | gcPBM binding intensity (ln) |
| --- | --- |
| CTCATTTTTGTACAGGTGCACTTATCGTTACACTAT | 9.27 ± 0.46 |
| ATATACACATTAATAACACACAATATGATAACAAAT [CACACA_site7670] | 9.21 ± 0.35 |
| AATCCTTACGAACACACACACACGAATAAATAAAAA [CACACA_site6363] | 9.91 ± 0.26 |
| TAGAATTAAGTTATTGCACACAGGAAAAGTTTCATA [CACACA_site1634] | 8.8 ± 0.41 |
| TCTTCGAAACTATCACTCTCACAATTCATTTATTTT [TGCATGCA_negctrl_site156] | 8.77 ± 0.52 |
| ATAAATAAGAAAAATTGTACAATATTTTTTAGGATA [XGTACX_site3163] | 8.62 ± 0.42 |
| AAAAGTTTAAGTTTTCGAAAATTTACCAAAAAAAAA [CACACA_negctrl_site1644] | 8.4 ± 0.67 |
| GTGCATAAATCATACACACACACATATATAAATATA [CACACA_site7188] | 9.77 ± 0.33 |
| AAAGTTTTTATAAAAAAAAAAATAAATACCATATAT [XGTACX_negctrl_site113] | 9.07 ± 0.52 |
| GTGTTTTTATGTGAATGTACATATTTACTATCACAC [XGTACX_site2388] | 9.21 ± 0.28 |
| TACTATAACCCACATACACACAAAAAAAAAAAAAAA [CACACA_site4454] | 9.04 ± 0.42 |
| TATACAGATGGACACACACACATAAATAAATATATA [CACACA_site4863] | 9.82 ± 0.3 |
| TTTATTTTTAACAGTGCACACATAACTTAATTATAT [CACACA_site8681] | 9.05 ± 0.4 |
| TATTATATATTTAATAGTACATATAAAATAATAAGG [XGTACX_site4823] | 8.55 ± 0.47 |
| TGGTTTATTTATTAAGTGCATAAATGCAATATATAT | 8.59 ± 0.36 |
| TTAACTTCTTTAAAATGTACATATATTAAATAATAA [XGTACX_site3391] | 8.27 ± 0.35 |
| AAAAAATATAGATGCACACACAAAAAAACAAATTAA [CACACA_site6718] | 9.23 ± 0.43 |
| TTTATGTAATATACATGTACAGAATATAAAATATAT [XGTACX_site6906] | 8.73 ± 0.41 |
| TATTCTTACATCACCTCACACATTTAATATTCCTTA [CACACA_site4693] | 8.83 ± 0.51 |
| ATATATATATATCAGAGTACATTCTTTAAAATATAT [XGTACX_site5915] | 8.76 ± 0.12 |
| AGATTTTGAAATTATAAAAAAATTTCACTTCATTTA [CACACA_negctrl_site888] | 8.22 ± 0.47 |
| GTATTATTATTTTATGCATGTACATTGAATTATATT [TGCATGCA_site34] | 9.03 ± 0.38 |
| AAATAAAACAGACACACACACACATACACAAAAAAA [CACACA_site7753] | 10.1 ± 0.22 |

| Sequence | gcPBM binding intensity (ln) |
| --- | --- |
| TATAAATATGTATATGCATGTGGAATATATAATTAA [TGCATGCA_site226] | 8.79 ± 0.35 |
| ATATGAGTATAAAAATGTACGGAGCAACTAAATATA [XGTACX_site620] | 9.03 ± 0.45 |
| TGTCACCTATTTTTTTGTACGTATGTCCATTTTTTT [XGTACX_site4368] | 9.15 ± 0.62 |
| ATTACAACCACATTGACATGCAAATGTAGAGGGGGA [TGCATGCA_site694] | 9.43 ± 0.085 |
| AAAAAAAAAGAGGCGTGTACATATATAATTTAAATT [XGTACX_site6827] | 9.04 ± 0.52 |
| TGTTCTAATATTTGTTGTACATTTACATTTCTCTCT [XGTACX_site2585] | 9.01 ± 0.42 |
| TTATTAAAGTATAACTGTACATGCGAGTAAAAGAAT [XGTACX_site7388] | 9.01 ± 0.57 |
| ATAATAGAAACAAACAGTACACATACCTAAAAGGAA [XGTACX_site8647] | 8.97 ± 0.49 |
| TATTTTATTTCAAATCTTAATAATTGTAATTCTTCA [XGTACX_negctrl_site442] | 8.28 ± 0.47 |
| TGTGTAATACATAATACACACATGTATATGTCGCAT [CACACA_site4757] | 9.21 ± 0.26 |
| ATTTTTAAAATAAATACATGCATATATTTATATGTT [TGCATGCA_site394] | 8.69 ± 0.42 |
| TTTTAATTAGAAATCATACACACATATATATATATA [CACACA_site174] | 9.25 ± 0.17 |
| ATTTACATAAACGTCTGTACTAATATACAATTTTCT [XGTACX_site1700] | 8.8 ± 0.45 |
| TATATATAGAAACACACACACATATATATATATATT [CACACA_site4115] | 9.73 ± 0.24 |
| CATAAAATTGTATTTTGTACACATTTTGTATACATT [XGTACX_site5705] | 8.95 ± 0.36 |
| AATAGGATATGGTACATTTTTTGTATACTTTTTGTT [CACACA_negctrl_site1804] | 8.91 ± 0.47 |
| ATAAATTCTATGTATACACACATATATAATATATAT [CACACA_site2689] | 9.15 ± 0.35 |
| AAACAAGTAATTGTTATTATTATTATATTATTATTA [CACACA_negctrl_site402] | 8.37 ± 0.47 |
| TATTCCTATATACAGCGTACAAAAAATAATATGTAT [XGTACX_site8112] | 8.69 ± 0.33 |
| TATGGAACACACCTTAATATGTGATAAAATATGATA [GTGCAC_negctrl_site718] | 8.99 ± 0.45 |
| GTTATTAAATAATTCACACACATATATATATATATA [CACACA_site2260] | 9.74 ± 0.24 |
| AAATATTATGTACGCACACACATTTTTGATATATAA [CACACA_site7755] | 9.31 ± 0.33 |
| CGCAACGTGAAAATACGTACACATACATTTTTATAT [XGTACX_site330] | 8.88 ± 0.39 |

| Sequence | gcPBM binding intensity (ln) |
| --- | --- |
| TAATCGTTTTATAAATGTACAAAATTGTTATGTTAT [XGTACX_site5147] | 8.69 ± 0.38 |
| TTAATACATACATTCACACACACTAAATGTATATTT [CACACA_site4105] | 9.23 ± 0.28 |
| GGGGGAAGGTTGAAGGTGCTTGATGGAGAAAAATAT | 9.11 ± 0.13 |
| AAAATAGAGTTGAATGCACACATACAAATTTTTAGG [CACACA_site9188] | 9.07 ± 0.52 |
| ATAAATAATTTATTCACACATACAAAAGTTTACAAA [CACACA_site5666] | 8.59 ± 0.45 |
| TTATTAAATTCTTTATTTAGCATATACAATAAAAGA [CACACA_negctrl_site1420] | 8.13 ± 0.48 |
| CTAAAAAGAGAAGTGTGTCCTCAAATTAATATAATT [XGTACX_site1057] | 8.66 ± 0.65 |
| TTTTTTTTTTTTGAAGTGCATGTTACGATGAACAAA [GTGCAC_site9451] | 8.21 ± 0.39 |
| TCTTATATAACGAAAGTAAAATAATATGCTAAGCAT [CACACA_negctrl_site668] | 8.45 ± 0.4 |
| TATATAAAAATATACACACACAAATGTATTTATATA [CACACA_site4284] | 9.07 ± 0.43 |
| AATGAATATTAAAGGAGTACACATAATAAGTAAGAA [XGTACX_site7354] | 9.1 ± 0.4 |
| GAAAAAAAAAAAAATACACACAAATTGGTATAGAAT [CACACA_site380] | 9.21 ± 0.57 |
| GATTATTTCTAAAAAGTGCATATTTAAAAATCTCCT | 8.29 ± 0.43 |
| TATTATATTATACATACACACCCATATAATATGTTT [CACACA_site8191] | 9.04 ± 0.43 |
| ATTGTTTTGTAATATGAAAAAATTGTGTAATGTGTC [CACACA_negctrl_site1510] | 8.72 ± 0.4 |
| ATTTATATGAAAATATGTACTTATATAAATTTATTT [XGTACX_site53] | 8.54 ± 0.42 |
| AAAAAATAGAATATGGGTACTAAAAAGATACAAACA [XGTACX_site4464] | 8.85 ± 0.57 |
| AAATTCGTAATAATGTGTACATAACTATACATAATT [XGTACX_site1717] | 8.9 ± 0.42 |
| CACATAAAATAAGGTGCATGCAAACGAGAAAATAAA [TGCATGCA_site75] | 9.56 ± 0.45 |
| AAGATTAAACATTGCACACAAAAACATATTTTCTAT [CACACA_site530] | 9.07 ± 0.4 |
| AATAAATATATTAAAAGTACACAAATATTATTTAAT [XGTACX_site2482] | 8.72 ± 0.42 |
| AAAAAAAATATATTACAAAACTTAGGATCCTAATAT [CACACA_negctrl_site470] | 8.56 ± 0.51 |
| ATATATATATAATAATGTACTTATAATAGATGTGTA [XGTACX_site4677] | 8.76 ± 0.31 |

| Sequence | gcPBM binding intensity (ln) |
| --- | --- |
| TAATAAAAAGTTGAGGTGCATATAGAGTTCTTCTTT [GTGCAC_site9508] | 8.71 ± 0.46 |
| ATTATAATATTTAATTGTACTTGTATTTATTCCAAA [XGTACX_site6417] | 8.59 ± 0.45 |
| ATATTTTATATAATAGTGCAAATAATATTAAATAAT | 8.61 ± 0.47 |
| TGCCCTTTGGTTATAACACACATGCACCCGTAAATA [CACACA_site3842] | 9.04 ± 0.38 |
| CAAAGGAAACCTATCTGTACACATATTGGGGGAAAA [XGTACX_site3502] | 9.075 ± 0.064 |
| AGAAGATTAAACATTGCACACAAAAACATATTTTCT [CACACA_site8072] | 8.96 ± 0.45 |
| AATATATAAGCTGTTCTATTCAAGAATTATATCTTA [CACACA_negctrl_site270] | 8.53 ± 0.29 |
| CGTAAACGATATAAATGTACGAATATCTATATATTA [XGTACX_site8116] | 8.69 ± 0.51 |
| TATATATTGCCCTTCACACACACACCGATATATATA [CACACA_site5390] | 9.69 ± 0.29 |
| GAACGATATATTATATGTACATATATATATATATAT [XGTACX_site394] | 9.73 ± 0.33 |
| TCGTTTCATAATATTGTGCACATATATATTTACAAT | 9.05 ± 0.4 |
| TATTTCATCTTTTAAGAAGGTACCCATATGTCATAT [GTGCAC_negctrl_site403] | 8.78 ± 0.45 |
| AAAAATATAACCGTTACACACAAAATAATATGAGAA [CACACA_site3773] | 9.14 ± 0.46 |
| ATATATATATATATTTGTACTTACATTTTTATTTAT [XGTACX_site4551] | 9.41 ± 0.16 |
| ATAATAAGGTTAAGCACACATATTACATATATAACT [CACACA_site3356] | 9.08 ± 0.51 |
| CCAGTGTGCACCTTGCGTACATATTAAATTAATTAA [XGTACX_site3729] | 8.73 ± 0.57 |
| AAAAAAGAAATAAGGATACACACTATTGATAAAAGT [CACACA_site272] | 9.15 ± 0.4 |
| TTTTTTAAATTTAAAGTGCATTATTATATATTTGTA | 8.53 ± 0.38 |
| CAAAAAAAAAAACGGGTGCTAAATTTTATTTTTTAT | 8.48 ± 0.49 |
| AAAAAAAAAATATATATATATATATATATATATATA [GTGCAC_negctrl_site467] | 10.1 ± 0.2 |
| ATAAAGCACACCGACACACACATATATATATATATA [CACACA_site1047] | 10.54 ± 0.099 |

— the supplement of paper PMC11417369
